Assay results: US20240141042A1 (INNATE PHARMA, published 2024)

T1: Human NKp46 recombinant proteins (human, UniProt O76036 22-258)
T1 construct: also called recombinant human NKp46 proteins
T1 sequence: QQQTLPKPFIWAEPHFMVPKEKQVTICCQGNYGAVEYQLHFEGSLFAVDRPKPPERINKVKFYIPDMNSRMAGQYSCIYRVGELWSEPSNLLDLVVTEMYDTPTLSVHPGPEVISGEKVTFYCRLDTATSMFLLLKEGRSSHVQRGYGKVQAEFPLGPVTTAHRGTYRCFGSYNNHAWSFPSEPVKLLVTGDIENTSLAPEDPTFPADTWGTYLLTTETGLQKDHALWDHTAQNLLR


Experiments:
human FcRn (Example 10) [1] = molecular target: T2, human FcRn (Example 10) (human, UniProt P55899 fragment; P61769 fragment, limits assumed); test: SPR, FcRn immobilized on CM5, Steady State
T2 construct: Construct not described; Beta-2-microglobulin is not mentioned; also called recombinant FcRn proteins

[2] = molecular target: T1, Human NKp46 recombinant proteins; test: SPR, bispecific captured on Protein-A chip, human NKp46 injected, 1:1 kinetic model
Experimental: SPR measurements were performed on a Biacore T100 apparatus (Biacore GE Healthcare) at 25° C. In all Biacore experiments HBS-EP+(Biacore GE Healthcare) and NaOH 10 mM served as running buffer and regeneration buffer respectively. Sensorgrams were analyzed with Biacore T100 Evaluation software. Protein-A was purchase from (GE Healthcare). Human NKp46 recombinant proteins were cloned, produced and purified at Innate Pharma.
(§1) Protein-A proteins were immobilized covalently to carboxyl groups in the dextran layer on a Sensor Chip CM5. The chip surface was activated with EDC/NHS (N-ethyl-N′-(3-dimethylaminopropyl) carbodiimidehydrochloride and N-hydroxysuccinimide (Biacore GE Healthcare)). Protein-A was diluted to 10 μg/ml in coupling buffer (10 mM acetate, pH 5.6) and injected until the appropriate immobilization level was reached (i.e. 2000 RU). Deactivation of the remaining activated groups was performed using 100 mM ethanolamine pH 8 (Biacore GE Healthcare).
Monovalent affinity study was done following a regular Capture-Kinetic protocol recommended by the manufacturer (Biacore GE Healthcare kinetic wizard). Seven serial dilutions of human NKp46 recombinant proteins, ranging from 6.25 to 400 nM were sequentially injected over the captured Bi-Specific antibodies and allowed to dissociate for 10 min before regeneration. The entire sensorgram sets were fitted using the 1:1 kinetic binding model.

human FcRn (Example 10) [3] = molecular target: T2, human FcRn (Example 10); test: SPR, FcRn immobilized on CM5, SCK/Two state reaction
T2 sequence (P55899 24-297 limits assumed, form in doubt, chain 1 of 2): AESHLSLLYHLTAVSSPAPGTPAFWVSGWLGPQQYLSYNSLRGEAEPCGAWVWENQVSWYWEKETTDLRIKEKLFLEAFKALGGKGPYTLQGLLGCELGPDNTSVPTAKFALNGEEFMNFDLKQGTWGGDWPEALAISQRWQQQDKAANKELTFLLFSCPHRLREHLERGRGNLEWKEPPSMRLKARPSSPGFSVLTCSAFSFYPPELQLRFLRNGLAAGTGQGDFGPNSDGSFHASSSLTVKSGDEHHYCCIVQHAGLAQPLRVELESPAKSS
T2 sequence (P61769 21-119 limits assumed, form in doubt, chain 2 of 2, further chain): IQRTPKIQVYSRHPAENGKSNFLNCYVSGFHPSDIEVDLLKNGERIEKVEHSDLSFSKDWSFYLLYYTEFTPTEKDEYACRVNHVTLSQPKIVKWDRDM
Experimental: SPR measurements were performed on a Biacore T100 apparatus (Biacore GE Healthcare) at 25° C. In all Biacore experiments Acetate Buffer (50 mM Acetate pH5.6, 150 mM NaCl, 0.1% surfactant p20) and HBS-EP+ (Biacore GE Healthcare) served as running buffer and regeneration buffer respectively. Sensorgrams were analyzed with Biacore T100 Evaluation software. Recombinant mouse FcRn was purchase from R&D Systems.
as §1, with “Recombinant FcRn” for “Protein-A”, “FcRn proteins were” for “Protein-A was”, “2500” for “2000”

Binder | Kd (human FcRn (Example 10) [1]) [nM] | Kd [2] [nM] | koff [2] [s⁻¹] | kon [2] [M⁻¹ s⁻¹] | Kd (human FcRn (Example 10) [3]) [nM]
CD19-F10A-NKp46-3 (bispecific antibody, human IgG1, kappa, Heterodimer: first chain 157, second chain 156) chain 1: QVQLQQSGAELVRPGSSVKISCKASGYAFSSYWMNWVKQRPGQGLEWIGQIWPGDGDTNYNGKFKGKATLTADESSSTAYMQLSSLASEDSAVYFCARRETTTVGRYYYAMDYWGQGTTVTVSSASTKGPSVFPLAPSSKSTSGGTAALGCLVKDYFPEPVTVSWNSGALTSGVHTFPAVLQSSGLYSLSSVVTVPSSSLGTQTYICNVNHKPSNTKVDKRV[sequence of human IgG1 Fc with N297S (EU numbers) not given]GGGSGGGGSGGGGSGQPREPQVYTLPPSREEMTKNQVSLTCLVKGFYPSDIAVEWESNGQPENNYKTTPPVLDSDGSFFLYSKLTVDKSRWQQGNVFSCSVMHEALHNHYTQKSLSLSPGSTGSEVQLQQSGPELVKPGASVKISCKTSGYTFTEYTMHWVKQSHGKSLEWIGGISPNIGGTSYNQKFKGKATLTVDKSSSTAYMELRSLTSEDSAVYYCARRGGSFDYWGQGTTLTVSSVEGGSGGSGGSGGSGGVDDIVMTQSPATLSVTPGDRVSLSCRASQSISDYLHWYQQKSHESPRLLIKYASQSISGIPSRFSGSGSGSDFTLSINSVEPEDVGVYYCQNGHSFPLTFGAGTKLELK chain 2: DIQLTQSPASLAVSLGQRATISCKASQSVDYDGDSYLNWYQQIPGQPPKLLIYDASNLVSGIPPRFSGSGSGTDFTLNIHPVEKVDAATYHCQQSTEDPWTFGGGTKLEIKRTVAAPSVFIFPPSDEQLKSGTASVVCLLNNFYPREAKVQWKVDNALQSGNSQESVTEQDSKDSTYSLSSTLTLSKADYEKHKVYACEVTHQGLSSPVTKSFNRGEC | 433 | 29 | 0.00754 | 261000 | 
CD19-F13-NKp46-3 (bispecific antibody, human IgG1, kappa, Heterodimer with dimeric Fc: first chain 179, second chain 178; copies: 1 + 1) chain 1: QVQLQQSGAELVRPGSSVKISCKASGYAFSSYWMNWVKQRPGQGLEWIGQIWPGDGDTNYNGKFKGKATLTADESSSTAYMQLSSLASEDSAVYFCARRETTTVGRYYYAMDYWGQGTTVTVSSASTKGPSVFPLAPSSKSTSGGTAALGCLVKDYFPEPVTVSWNSGALTSGVHTFPAVLQSSGLYSLSSVVTVPSSSLGTQTYICNVNHKPSNTKVDKRV[sequence of human IgG1 Fc not given]TGSEVQLQQSGPELVKPGASVKISCKTSGYTFTEYTMHWVKQSHGKSLEWIGGISPNIGGTSYNQKFKGKATLTVDKSSSTAYMELRSLTSEDSAVYYCARRGGSFDYWGQGTTLTVSSVEGGSGGSGGSGGSGGVDDIVMTQSPATLSVTPGDRVSLSCRASQSISDYLHWYQQKSHESPRLLIKYASQSISGIPSRFSGSGSGSDFTLSINSVEPEDVGVYYCQNGHSFPLTFGAGTKLELK chain 2: DIQLTQSPASLAVSLGQRATISCKASQSVDYDGDSYLNWYQQIPGQPPKLLIYDASNLVSGIPPRFSGSGSGTDFTLNIHPVEKVDAATYHCQQSTEDPWTFGGGTKLEIKRTVAAPSVFIFPPSDEQLKSGTASVVCLLNNFYPREAKVQWKVDNALQSGNSQESVTEQDSKDSTYSLSSTLTLSKADYEKHKVYACEVTHQGLSSPVTKSFNRGE[sequence of human IgG1 Fc not given] |  | 68 | 0.00565 | 83000 | 
CD19-F14-NKp46-3 (bispecific antibody, human IgG1, kappa, As F13 but with N297S: first chain 181, second chain 180; copies: 1 + 1) chain 1: QVQLQQSGAELVRPGSSVKISCKASGYAFSSYWMNWVKQRPGQGLEWIGQIWPGDGDTNYNGKFKGKATLTADESSSTAYMQLSSLASEDSAVYFCARRETTTVGRYYYAMDYWGQGTTVTVSSASTKGPSVFPLAPSSKSTSGGTAALGCLVKDYFPEPVTVSWNSGALTSGVHTFPAVLQSSGLYSLSSVVTVPSSSLGTQTYICNVNHKPSNTKVDKRV[sequence of human IgG1 Fc with N297S (EU numbers) not given]TGSEVQLQQSGPELVKPGASVKISCKTSGYTFTEYTMHWVKQSHGKSLEWIGGISPNIGGTSYNQKFKGKATLTVDKSSSTAYMELRSLTSEDSAVYYCARRGGSFDYWGQGTTLTVSSVEGGSGGSGGSGGSGGVDDIVMTQSPATLSVTPGDRVSLSCRASQSISDYLHWYQQKSHESPRLLIKYASQSISGIPSRFSGSGSGSDFTLSINSVEPEDVGVYYCQNGHSFPLTFGAGTKLELK chain 2: DIQLTQSPASLAVSLGQRATISCKASQSVDYDGDSYLNWYQQIPGQPPKLLIYDASNLVSGIPPRFSGSGSGTDFTLNIHPVEKVDAATYHCQQSTEDPWTFGGGTKLEIKRTVAAPSVFIFPPSDEQLKSGTASVVCLLNNFYPREAKVQWKVDNALQSGNSQESVTEQDSKDSTYSLSSTLTLSKADYEKHKVYACEVTHQGLSSPVTKSFNRGE[sequence of human IgG1 Fc with N297S (EU numbers) not given] |  | 62 | 0.00546 | 88300 | 14
